# Data from PubChem BioAssay AID1030 (National Center for Advancing Translational Sciences (NCATS), 2008).
# Screen size: about 220,000 compounds; about 16,000 (7.3%) were called active. This list was built around the results that the source calls inconclusive (neither active nor inactive); the mix of calls is not that of the screen. Calls come from the whole dose curve; as a rule, active = well fitted inhibition curve with a large enough effect (not every such curve was filed as active); inconclusive = small, poorly fitted or top-dose-only effect, or another doubt; inactive = no such curve, though single readings can be large or run the other way. Potencies of inconclusive entries are left out as doubtful fits.
# Biological target: Aldehyde dehydrogenase 1A1 (Homo sapiens) (UniProt P00352)
# UniProt P00352, sequence (P00352 whole entry, looked up): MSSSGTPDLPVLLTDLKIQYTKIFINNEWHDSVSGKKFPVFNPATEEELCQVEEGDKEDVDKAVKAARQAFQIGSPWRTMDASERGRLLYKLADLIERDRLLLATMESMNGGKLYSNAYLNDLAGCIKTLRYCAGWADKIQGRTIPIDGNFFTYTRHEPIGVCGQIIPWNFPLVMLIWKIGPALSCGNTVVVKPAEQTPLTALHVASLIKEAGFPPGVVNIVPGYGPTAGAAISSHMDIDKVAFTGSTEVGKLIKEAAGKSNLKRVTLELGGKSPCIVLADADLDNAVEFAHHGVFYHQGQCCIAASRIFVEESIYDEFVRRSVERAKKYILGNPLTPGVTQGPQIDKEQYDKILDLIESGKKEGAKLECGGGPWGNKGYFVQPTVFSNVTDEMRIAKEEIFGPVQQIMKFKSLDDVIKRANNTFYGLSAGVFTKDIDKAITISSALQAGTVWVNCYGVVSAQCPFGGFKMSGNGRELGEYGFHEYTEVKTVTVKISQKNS
# Experiment: qHTS Assay for Inhibitors of Aldehyde Dehydrogenase 1 (ALDH1A1);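 for activity, negative = inhibition: plate controls were no enzyme wells and a reference inhibitor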
# Conditions: Purified ALDH1A1, NADH fluorescence, propionaldehyde substrate; series mostly up to 75.3 µM; activity, negative = inhibition: at the top concentration
# Potency is the fitted concentration of half-maximal effect; tags give direction and shape of the fitted curve.
Structure (SMILES),"activity, negative = inhibition",Potency
COc1ccc(C(=O)OCn2nnc3ccccc3c2=O)cc1[N+](=O)[O-],inactive: -16.8%,
COC(=O)COc1ccc2cccc(-n3cnnn3)c2c1,,"inconclusive [inhibitor, single point]"
CCS(=O)(=O)NCC(c1cccnc1)N1CCN(c2ccc(OC)cc2)CC1 (stereo not drawn),,"inconclusive [inhibitor, single point]"
COc1ccc(C2C3(C#N)C(N)=NC(OC)(OC)C23C#N)cc1 (stereo not drawn),,"inconclusive [inhibitor, single point]"
COC(=O)c1ccccc1NC(=O)c1sc(N)nc1C,,"inconclusive [inhibitor, single point]"
COc1cccc(-c2nnc(SCC(=O)N3CCCc4ccccc43)o2)c1,,active: 7.94 µM
COc1ccc(-n2cc(CN3CCC(OC)CC3)c(-c3cccc(F)c3)n2)cc1,,"inconclusive [inhibitor, partial curve]"
CC(=O)c1sc2nc(C)cc(C)c2c1N,,"inconclusive [inhibitor, partial curve]"
COc1ccc(/C=C/C(=O)c2cc(O)ccc2O)cc1,,"inconclusive [inhibitor, single point]"
COc1cccc(CN(C)CC(=O)NC(=O)NCc2ccccc2)c1,,"inconclusive [inhibitor, single point]"
COc1ccc(-c2cc(-c3nnc(COC(=O)C4CC4)o3)c3ccccc3n2)cc1OC,,"inconclusive [inhibitor, single point]"
Cc1cccc(Nc2ccccc2C(=O)O)c1C,,inactive
Cc1ccc(NC(=O)c2nn(C34CC5CC(CC(C5)C3)C4)cc2[N+](=O)[O-])cc1,,active: 0.0282 µM
Cn1c(=O)c2c(nc(SCc3nn[nH]n3)n2Cc2ccccc2F)n(C)c1=O,,"inconclusive [inhibitor, partial curve]"
COc1ccccc1-c1ccc(NC2CCCCC2)nn1,inactive: -5.33%,
O=C(Nc1nnc(C2=COCCO2)o1)c1ccc(S(=O)(=O)N2CCOCC2)cc1,,"inconclusive [inhibitor, single point]"
O=C(CCSc1ccccc1)NC(=O)COC(=O)C1CCCCC1,,"inconclusive [inhibitor, single point]"
Cc1noc(C)c1C(=O)Nc1ccccn1,,"inconclusive [inhibitor, single point]"
CCNC(=O)COc1ccc(CC)cc1,inactive: 9.39%,
CN(Cc1ccccc1)C(=O)COC(=O)c1cc(-c2ccc(Cl)s2)nc2ccccc12,,"inconclusive [inhibitor, single point]"
CCOC(=O)c1c(-c2ccc(OC)cc2)csc1/N=C/N(C)C,inactive: 1.51%,
CCN(CC)c1ccc(/C=N/NC(=O)Nc2ccccc2)cc1,,"inconclusive [inhibitor, partial curve]"
COc1ccc(OC(C)C(=O)Nc2cccc(OC)c2)cc1 (stereo not drawn),,"inconclusive [inhibitor, single point]"
CCOC(=O)N/N=C/c1c(F)c(F)c(F)c(F)c1F,inactive: -13%,

Structure (SMILES),"activity, negative = inhibition",Potency
COc1ccc(C(=O)Oc2coc(CSc3nnc(NC(=O)c4cccs4)s3)cc2=O)cc1,,"inconclusive [inhibitor, single point]"
O=C(COc1ccc(Br)cc1F)NC1CCN(Cc2ccccc2)CC1,inactive: 6.09%,
C=CCNC(=O)c1ccc(-c2ccc([N+](=O)[O-])cc2)o1,,"inconclusive [inhibitor, single point]"
Cn1c(=O)c2c(nc(CN3CCC(C(N)=O)CC3)n2CCc2ccccc2)n(C)c1=O,,active: 4.47 µM
Cc1ccc(S(=O)(=O)N2CCC(C(=O)NNC(=O)c3ccccc3)CC2)cc1,inactive: 6.74%,
CCOC(=O)c1cc2c(=O)n3cccc(C)c3nc2n(Cc2ccco2)c1=NC(=O)c1cccnc1,,"inconclusive [inhibitor, partial curve]"
CCn1cc(C(=O)N2CCN(C(=O)c3ccco3)CC2)c2cc(OC)c(OC)cc2c1=O,,"inconclusive [inhibitor, partial curve]"
O=C(NCc1ccccc1)c1cc(S(=O)(=O)N2CCCCC2)ccc1N1CCOCC1,,"inconclusive [inhibitor, partial curve]"
OC[C@H](CCc1c[nH]c2ccccc12)c1c[nH]c2ccccc12,,"inconclusive [inhibitor, single point]"
CNC(=O)NC(=O)CSc1nc(-c2cccs2)c(C#N)c(=O)[nH]1,inactive: -0.661%,
Cc1ccc(CC2CC(=O)N(CCc3ccccc3)C2=O)cc1 (stereo not drawn),inactive: -0.612%,
COC(=O)c1cc(NC(=O)CN(C)Cc2ccccc2)cc(C(=O)OC)c1,,"inconclusive [inhibitor, single point]"
C=CCSc1nc(-c2ccccc2)c(C#N)c(=O)[nH]1,,"inconclusive [inhibitor, single point]"
O=Cc1ccc(-n2nncc2-c2ccc([N+](=O)[O-])cc2)cc1,,active: 12.6 µM
CCOc1ccc(N2CCc3c(C)nc(SC)nc32)cc1,,"inconclusive [inhibitor, single point]"
Cc1ccc(NC(=O)CSc2nnc(-c3ccncc3)o2)cc1C,,"inconclusive [inhibitor, single point]"
CNc1nc(N)nc(OC(C(F)(F)F)C(F)(F)F)n1,inactive: 4.2%,
Cc1ccc(NC(=O)/C(=C\c2ccccc2)NC(=O)/C=C/c2ccccc2)cc1,,"inconclusive [inhibitor, partial curve]"
CCOC(=O)c1cc(-c2csc(Nc3ccccc3Cl)n2)on1,,"inconclusive [inhibitor, single point]"
COc1ccc(OC)c(NC(=O)C2=C(C)NC(=O)NC2c2cccs2)c1 (stereo not drawn),inactive: 9.65%,
Cc1cc(NC(=O)CS(=O)(=O)Cc2ccccc2)no1,inactive: 1.52%,
CCOc1cc(C)c(C(C)C)cc1S(=O)(=O)N1CCN(C)CC1,,active: 5.01 µM
O=C1CC(c2ccc(F)c(Br)c2)C2=C(CCCC2=O)N1 (stereo not drawn),inactive: 21.2%,
O=C(CCn1c(=O)[nH]c2ccsc2c1=O)N1CC(=O)N(CCc2ccccc2)C(=O)C1,inactive: -1.46%,
